# Reference: PubChem BioAssay AID1346428 (National Center for Advancing Translational Sciences (NCATS), 2018)
# Screen size: about 48,000 compounds; about 1,200 (2.5%) were called active. Not shown: some 2% with an inconclusive outcome.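 Rule for the calls: active = activation of at least 60% and not above a set upper limit (about 1 call in 100 departs from these limits); inconclusive = activation of 40% to 60%, or above that upper limit; inactive = activation under 40%.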 The list shows a part of the results.
# Biological target: Probable G-protein coupled receptor 32 (Homo sapiens) (UniProt O75388)
# UniProt O75388, sequence (O75388 whole entry, looked up): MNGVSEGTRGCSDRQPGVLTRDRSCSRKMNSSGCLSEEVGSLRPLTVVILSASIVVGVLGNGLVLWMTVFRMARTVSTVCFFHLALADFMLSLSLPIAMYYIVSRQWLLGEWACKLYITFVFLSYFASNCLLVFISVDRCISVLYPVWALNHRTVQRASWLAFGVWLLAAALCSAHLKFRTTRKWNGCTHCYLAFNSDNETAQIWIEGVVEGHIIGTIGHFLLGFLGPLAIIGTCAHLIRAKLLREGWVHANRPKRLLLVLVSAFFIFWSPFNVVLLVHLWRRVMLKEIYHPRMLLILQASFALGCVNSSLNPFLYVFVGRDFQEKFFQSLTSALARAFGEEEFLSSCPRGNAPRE
# Assay: qHTS for Agonists of Human Resolvin D1 Receptor DRV1; note: 0% is about no effect
# Conditions: CHO-K1 GPR32 beta-arrestin PathHunter luminescence, 90 min; at 76.9 µM; stronger effect = higher value; zero percent set by DMSO-only wells
# In short: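 Cells are plated overnight, treated with compounds in DMSO for 90 minutes at 37 °C, and developed with PathHunter detection reagent for 1 hour before luminescence is read; signal reflects beta-arrestin binding to GPR32 in engineered CHO-K1 cells.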
row,Compound,activation
1,CC1=C(C(=O)OC2CCCCCC2)C(c2c(F)cccc2Cl)CC(=O)N1 (centres undefined),inactive: 13.6%
2,CCOC(=O)c1c(Nc2ccc(C)cc2)nnc(-c2ccccc2)c1-c1ccccc1,inactive: 20.3%
3,O=C1CC2(CCCC2)CC(=O)N1,active: 65.4%
4,Cn1c(=O)n(-c2ccc(F)c(Cl)c2)c(=O)c2sc3ccccc3c21,inactive: -3.65%
5,CCN(CC)c1ccc(C(=C2C=CC(=[N+](CC)CC)C=C2)c2cc(S(=O)(=O)O)ccc2S(=O)(=O)[O-])cc1,inactive: -77.8%
6,CCC1CCCCN1C(=O)c1ccc2c(c1)N(Cc1cccc(Cl)c1)C(=O)c1ccccc1S2(=O)=O (centres undefined),inactive: -18.5%
7,COc1ccc2c(C)c(CCC(=O)NCCc3ccccc3OC)c(=O)oc2c1,inactive: 7.22%
8,CCc1ccccc1NS(=O)(=O)c1ccc(OC)c2ncccc12,inactive: 13.9%
9,COc1ccc(NCc2cc3cc4c(cc3n(CC(=O)Nc3ccc(F)cc3F)c2=O)OCO4)cc1,inactive: -43.8%
10,CC(C)C[C@H](NC(=O)C1OC1C(=O)O)C(=O)NCCCCN=C(N)N (some centres undefined),inactive: 1.27%
11,COC(=O)CCSc1nc2sc3c(c2c(=O)n1Cc1ccccc1)CCC(C(C)(C)C)C3 (centres undefined),inactive: 26.3%
12,CCOC(=O)c1cnc2c(Cl)cccc2c1NCCN1CCOCC1,inactive: -1.92%
13,COc1cc(C(=O)Nc2cc3c(cc2C)n(C)c(=O)c(=O)n3C)cc(OC)c1OC,inactive: 8.33%
14,COc1ccccc1-c1noc(-c2ccc(N3CCC(C)CC3)c([N+](=O)[O-])c2)n1,inactive: -27.9%
15,Cc1ccc(NC(=O)c2sc3nc(-c4cc5ccccc5oc4=O)[nH]c(=O)c3c2C)c(C)c1,inactive: 0.651%
16,CCC(=O)N1CCc2cc(S(=O)(=O)NC(Cc3ccccc3)C(=O)Nc3ccc(C)cc3)ccc21 (centres undefined),inactive: -3.08%
17,CCN1C(=O)c2ccccc2Sc2ccc(NC(C)=O)cc21,inactive: -10.3%
18,COc1cc(C(=O)Nc2cc(C)ccc2OCc2cc(=O)n3c(C)csc3n2)cc(OC)c1OC,inactive: -11.4%
19,CCOc1ccc(-c2cc(OC(=O)c3ccc(F)cc3)c3c(C)oc(C)c3c(=O)c2)cc1,inactive: -17.3%
20,CCOc1ccc(-n2c(SCc3ccc(C(=O)OC)o3)nc3c([nH]c4ccccc43)c2=O)cc1,inactive: -2.06%
21,CCCc1cc(=O)[nH]c(Nc2cccc(Cl)c2Cl)n1,active: 87.2%

row,Compound,activation
1,COc1ccc(CCNC(=O)c2cc3c(-c4ccccc4F)nn(C)c3s2)c(OC)c1,inactive: 8.72%
2,CCOC(=O)C1CCCN(S(=O)(=O)c2ccc3c(c2)CCCN3C(C)=O)C1 (centres undefined),inactive: 3.51%
3,COc1ccc(NC(=O)c2cc3c(s2)-c2c(C)cccc2OC3)c(OC)c1,inactive: -24.5%
4,O=C(Nc1ccc(Br)cc1F)c1cc(S(=O)(=O)NCc2ccc(F)cc2)ccc1F,inactive: 31.3%
5,C=C(C)Cn1c(=O)c2c(nc3n2CCN3c2ccc(CC)cc2)n(C)c1=O,inactive: -1.52%
6,CCCCNc1nc(Oc2ccc(=O)[nH]n2)nc(N(C)C)n1,inactive: 11.8%
7,CCOC(=O)c1cccc(NC(=O)c2cc3c(=O)n(Cc4ccccc4)ccc3nc2C)c1,inactive: -40.6%
8,Fc1ccc(-n2cc(-c3ccccc3)c3c(NC4CCCCC4)ncnc32)cc1,inactive: -32.4%
9,CCc1nn(CC(=O)NCCCN(CC)CC)c(=O)c2cc3sc(C)cc3n12,inactive: -25.4%
10,CSc1ncc(C(=O)Nc2ccccc2C(=O)c2ccccc2)c(C(F)(F)F)n1,inactive: -26.4%
11,Cc1cc(C)c(NC(=O)CSc2ccnc(=O)[nH]2)c(C)c1,inactive: 37.4%
12,COc1cc(NC(=O)CCn2c(-c3ccccc3)cc(C(C)=O)c2C)cc(OC)c1,inactive: -31.5%
13,Cc1cccc(CNC(=O)c2oc3c(c2C)-c2nn(Cc4ccccc4Cl)cc2CC3)c1,inactive: -22.7%
14,Cc1c(Cl)cccc1NC(=O)CSc1ncnc2c1sc1ccccc12,inactive: -7.52%
15,CCc1ccc(C2CC(=O)c3c([nH]c(C(=O)OCC4CCCCC4)c3C)C2)cc1 (centres undefined),inactive: -9.72%
16,NS(=O)(=O)c1ccc(CCNC(=O)C2COc3ccccc3C2)cc1 (centres undefined),inactive: -12.7%
17,Cc1cc(OCC(=O)Nc2ccc(-c3nc4cc(Cl)ccc4o3)cc2)cc(C)c1Cl,inactive: -6.59%
18,Cc1ccc(Cn2c(=O)c3cccnc3n(CC(=O)Nc3cccc(C(F)(F)F)c3)c2=O)cc1,inactive: -8.49%
19,O=C(COc1ccccc1)NCc1ccc2c(c1)CCN2C(=O)c1ccc(F)cc1,inactive: -31.7%
20,CCc1cccc(NC(=O)Nc2ccc3c(c2)N(C)C(=O)c2ccccc2S3)c1,inactive: 4.77%
21,CCOc1ccc(NC(=O)C(=O)NCCc2csc(-c3ccc(F)cc3)n2)cc1,inactive: -3.94%

row,Compound,activation
1,Cn1cc(S(=O)(=O)N2CCCCCC2)cc1C(=O)N1CCN(c2ccc(F)cc2)CC1,inactive: 26.2%
2,CCC(=O)N1CCc2cc(Br)cc(S(=O)(=O)CCC(=O)NCCc3ccc(OC)c(OC)c3)c21,inactive: -10.3%
3,CCOc1ccc(/C=C/c2nc(C#N)c(N3CCN(c4ccc(OC)cc4)CC3)o2)cc1,inactive: -13.9%
4,COc1ccc(NS(=O)(=O)c2cc3[nH]c(=O)c(=O)[nH]c3cc2C)cc1Cl,inactive: -2.57%
5,Oc1ccc(Cn2cc[nH]c2=S)cc1,inactive: 12.2%
6,CC(C)OCCCn1c(SCc2ccccc2C#N)nc2c(sc3ccccc32)c1=O,inactive: 49.4%
7,Cc1ccc(NC(=O)Cc2c(C(=O)O)c(C)cn2C)cc1Cl,inactive: -2.15%
8,COc1cc(OC)c(NC(=O)CN2C(=O)CCn3nc(-c4cccn4C)cc32)cc1Cl,inactive: 22%
9,CCN(CC)CCOc1ccc2c(c1)C(=O)c1cc(OCCN(CC)CC)ccc1-2,inactive: 25.1%
10,CN(C(=O)C1CCCN(c2ncnc3c2nc2n3CCCCC2)C1)c1ccccc1F (centres undefined),inactive: 15.7%
11,CCN(CC)CC(C)CNC(=O)CN1C(=O)CSc2ccc(S(=O)(=O)N3CCOCC3)cc21 (centres undefined),inactive: -10.8%
12,Cc1cc(F)ccc1NC(=O)CCS(=O)(=O)c1ccc2c(c1)NC(=O)CO2,inactive: 11.6%
13,O=C(Nc1ccc(Cl)cc1)C1CCCN(S(=O)(=O)c2ccc3[nH]c(=O)ccc3c2)C1 (centres undefined),inactive: 11.4%
14,Cc1ccc(Oc2c(C(F)(F)F)oc3c(CN4CCCCC4)c(O)ccc3c2=O)cc1,inactive: -34.2%
15,CCOc1cccc2cc(-c3nc(-c4ccccc4C)no3)c(=O)oc12,inactive: -8.82%
16,CCOC(=O)c1ccccc1NC(=O)CSc1cn(CC(=O)N2CCCCC2)c2ccccc12,inactive: -20.5%
17,COc1cccc(CNC(=O)C2CCCN(S(=O)(=O)c3ccc4c(ccn4C)c3)C2)c1 (centres undefined),inactive: -11.5%
18,Cc1nc2c(-c3ccccc3)c(C)nn2c(C)c1CCC(=O)NC(C)c1ccccc1 (centres undefined),inactive: 11.5%
19,CCc1ccccc1NS(=O)(=O)c1ccc2[nH]cc(C(=O)N3CCCCC3)c(=O)c2c1,inactive: 13.1%
20,COc1cc(CN(C(=O)Nc2ccccc2)c2ccccn2)cc(OC)c1OC,inactive: 4.53%
21,COc1ccc(NC(=O)CC2C(=O)N(c3ccc(F)cc3)C(=O)N2Cc2cccnc2)cc1 (centres undefined),inactive: -1.92%

row,Compound,activation
1,Nc1ccn([C@@H]2O[C@H](CO)[C@@H](O)C2O)c(=O)n1 (some centres undefined),inactive: 13.1%
2,CCCN(C(=O)c1cc2c(s1)-c1ccccc1OC2)c1ccccc1F,inactive: 36.7%
3,CCOC(=O)c1cccc(NC(=O)c2oc3c(c2C)-c2[nH]ncc2CC3)c1,inactive: -12.2%
4,CCC(C(=O)Nc1ccc(C(=O)OC)cc1)n1c(=O)c(-c2ccccc2NC(C)=O)nc2ccccc21 (centres undefined),inactive: -40.6%
5,Cc1ccc(NC(=O)c2cc(S(=O)(=O)NCCC3=CCCCC3)ccc2F)cc1F,inactive: 0.576%
6,COc1ccc(Cl)cc1NC(=O)c1ccc2nc(Cc3ccccc3)oc2c1,inactive: -15.6%
7,CC(C)CCNC(=O)c1cccc(Nc2nc3ccccc3n3nnnc23)c1,inactive: -13.1%
8,CCCC(=O)Nc1cc(C)c(O)c(-c2nc3ncccc3o2)c1,inactive: -12.4%
9,Cc1ccc(-n2nc(C(=O)N3CCN(c4cc(Cl)ccc4C)CC3)c(=O)n(C)c2=O)cc1,inactive: 4.62%
10,Cc1cc(NC(=O)c2ccc(Br)o2)cc(-c2nc3ccccc3o2)c1O,inactive: -1.08%
11,CCc1ccc(C(=O)c2cn(CC(=O)Nc3ccc(F)c(F)c3)c3cc(OC)c(OC)cc3c2=O)cc1,inactive: 13.4%
12,CCCCNC(=O)C1CCCN(Cc2nc(-c3ccc(Cl)cc3)oc2C)C1 (centres undefined),inactive: 0.238%
13,O=C(c1ccccc1Br)N(Cc1ccco1)C1CCS(=O)(=O)C1 (centres undefined),inactive: -12.9%
14,CCCCCC(=O)N1c2ccccc2C(C)(c2ccccc2)CC1(C)C (centres undefined),inactive: -20.3%
15,CCC(Sc1nc2c(sc3ccccc32)c(=O)n1CCc1ccccc1)C(=O)N(CC)CC (centres undefined),inactive: 0.503%
16,O=C(c1ccc2c(c1)N(Cc1ccccc1)C(=O)c1ccccc1S2(=O)=O)N1CCCC1,inactive: -18.9%
17,COc1cccc(CCNC(=O)Cn2c(-c3cccs3)cc3ccccc32)c1,inactive: 34.8%
18,Cc1ccc(C)c(N2CCN(C(=O)Nc3cn(CC(C)C)c(=O)c4ccccc34)CC2)c1,inactive: -18.8%
19,COc1ccc(NC(=O)CN2C(=O)C(c3ccc(C(C)(C)C)cc3)=NC2(C)C)cc1Cl,inactive: -12.9%
20,COc1ccc(Cn2c(C(=O)O)c(CNCC(C)c3ccccc3)c3ccc(OC)cc32)cc1 (centres undefined),inactive: 25.7%
21,Cc1cccc(Cc2cnc(NC(=O)C3Cc4ccc(C)cc4C(=O)O3)s2)c1 (centres undefined),inactive: 18.2%
